Data on 14 molecules can be found in article PMC12136788.

The chains are these.
B1: chr6:134965076:134965177:-|3pUTR|ENSG00000112339|unk|total|mutant (ssRNA)
RNA: GGGAGUUCUACAGUCCGACGAUCAAAGGAACAAUGUGCAAUUGAUAUGUUUUCCGAUGAGAGAGAAAAAUUAAAGCUAAAAUCCGCUGCAAAGAAGUAUUAAUAAUCACCUCUGCAAAAAUUCUAAGUUGCCAACUGGCAAAGCAACAGAGGAUUGAGCAUCA
B2: ENSG00000107863:be:win_801|CDS|ENSG00000107863|bound_else_gene|NA|bound_elsewhere_windowed (ssRNA)
RNA: GGGAGUUCUACAGUCCGACGAUCCAAUGAAAGUGUAAGGACUGUCAUUGUGCCUUCUGAGAAGGUUGUAGAUUUGUUAUCCAAUAGAAACAACCAUACAGGUCCUUCACAUAGAACUGAAGAAGUGAGGUAUGGCGUGAGUGACAACAGAGGAUUGAGCAUCA
B3: ENSG00000124766:be:win_3901|3pUTR|ENSG00000124766|bound_else_gene|NA|bound_elsewhere_windowed (ssRNA)
RNA: GGGAGUUCUACAGUCCGACGAUCAAUAUGCCGUGUAGAAUAUUUGUCUUAAAAUUCAAGGCCACAAAAACAAUGUUUGGGGGAAAAAAAAGAAAAAAUCAUGCCAGCUAAUCAUGUCAAGUUCACUGCCUGUCAGAUUGUUGACAACAGAGGAUUGAGCAUCA
B4: chr17:59694590:59694691:+|3pUTR|ENSG00000141367|msi1|FALSE|unique (ssRNA)
RNA: GGGAGUUCUACAGUCCGACGAUCCUUGUGUGUGUUUACUAACCCUUCCCUGAGGUUUGUGUAUGUUGGAUAUUGUGGUGUUUUAGAUCACUGAGUGUACAGAAGAGAGAAAUUCAAACAAAAUAUUGCUGUUCUUCAGUUUUGCAACAGAGGAUUGAGCAUCA
B5: chr3:179334266:179334377:+|CDS|ENSG00000121864|unk|FALSE|unique (ssRNA)
RNA: GGGAGUUCUACAGUCCGACGAUCUUAUUUAUGUCAAUAUUGUGAAUAUUCAACAGGACAAAUUGAAGAUCUUAAAAUUCAUCUAGAUUUCAAGCAUUCAGCUGACUUGCCUCAUAAAUGUAGUGACUGCUUGAUGAGGUUUGGCAACAGAGGAUUGAGCAUCA
B6: chr3:62294290:62294391:+|3pUTR|ENSG00000144724|msi1|FALSE|unique (ssRNA)
RNA: GGGAGUUCUACAGUCCGACGAUCAACUAGUCCUCUAAAAAUUCCCUAUUACUCCUAUAGCAAUCUAAUAAAAACUACCUACAUAGUUACUGUUUUCUUUCCUUCUUUGCCAAAUGUUUUAUAAUAAAUCUCUUAAUUACAUACCAACAGAGGAUUGAGCAUCA
B7: chr4:48579112:48579224:-|CDS|ENSG00000075539|unk|FALSE|bound_elsewhere (ssRNA)
RNA: GGGAGUUCUACAGUCCGACGAUCCUCUAUUGCCCUAGCUCGAUAGAUUUACAAACUUUAGCAGAAUGGAACUCUUCUCCUAUUAGCCACCAGUUUGAUGUGAUUAGUCCAUCACAUAUAUGGAUAUUUGCACAUGUGACCCAACAACAGAGGAUUGAGCAUCA
B8: ENSG00000096384:stop:overlap|stop_codon|ENSG00000096384|stop_codon|NA|stop_codon (ssRNA)
RNA: GGGAGUUCUACAGUCCGACGAUCCUGAUGAGAUCCCCCCUCUCGAGGGCGAUGAGGAUGCGUCUCGCAUGGAAGAAGUCGAUUAGGUUAGGAGUUCAUAGUUGGAAAACUUGUGCCCUUGUAUAGUGUCCCCAUGGGCUCCCACAACAGAGGAUUGAGCAUCA
B9: chr10:27170558:27170670:+|CDS|ENSG00000120539|unk|FALSE|unique (ssRNA)
RNA: GGGAGUUCUACAGUCCGACGAUCCUUAUGUGUGAACUCGAUGAAGACUGUGAAAAGAAUAGUAAGAGGGACUACUUAAGUUCUAGUUUUCUAUGUUCUGAUGAUGAUAGAGCUUCUAAAAAUAUUUCUAUGAACUCUGAUUCACAACAGAGGAUUGAGCAUCA
B10: chr19:21059139:21059240:+|3pUTR|ENSG00000118620|unk|FALSE|unique (ssRNA)
RNA: GGGAGUUCUACAGUCCGACGAUCGUAAAAAUGAAAAUAUUUAAUCCAAAAUUAAGUCUAUGUAAAUAUCAGAGAAUUUACUGUAGAAAUAUAUAAGGCACUGAGACUUCAGAUAUUAUACUAAAUCAGAGUGCUGAGUAUAGACAACAGAGGAUUGAGCAUCA
B11: chr8:39103990:39104232:+|3pUTR|ENSG00000168615|msi1|FALSE|unique (ssRNA)
RNA: GGGAGUUCUACAGUCCGACGAUCGUUUUGUCAUUAAGUGUUUAAGUGUUAUUCUGAAUUUUCUACCUUAGUUAUCAUUAAUGUAGUUCCUCAUUGAACAUGUGAUAAUCUAAUACCUGUGAAAACUGACUAAUCAGCUGCCAACAACAGAGGAUUGAGCAUCA
B12: chr12:49323620:49323721:+|CDS|ENSG00000135451|unk|FALSE|unique (ssRNA)
RNA: GGGAGUUCUACAGUCCGACGAUCAUCAUGACCACCCGGCAAGCCACGAAGGAUCCCCUCCUCCGGGGUGUAUCUCCUACCCCUAGCAAGAUUCCGGUACGCUCUCAGAAACGCACGCCUUUCCCCACUGUUACAUCGUGCGCCCAACAGAGGAUUGAGCAUCA
B13: ENSG00000198589:be:win_2101|CDS|ENSG00000198589|bound_else_gene|NA|bound_elsewhere_windowed (ssRNA)
RNA: GGGAGUUCUACAGUCCGACGAUCGUUGCAUUAAUGUCAGAACACCCUAACUCUAUGAUUCCUGCUUUUGACCAAAGGAAUGGGUUACGUGUUAUCUACAAACUUCUGGCAUCGAAAAGUGAAGGAAUCAGGGUACAAGCUCUUCAACAGAGGAUUGAGCAUCA
B14: chr8:143915506:143915607:-|3pUTR|ENSG00000178209|msi1|total|mutant (ssRNA)
RNA: GGGAGUUCUACAGUCCGACGAUCCCCCACACUCACUCCUGAGACCCCUGGCCUCCGGCGUCAGCCUCCAGCCUCUGUUCCCCCCGUAAGUGCCUUCCAUGUCGGCCUCUAACCCCAGGCCCCGAGGACCCAGACCCAGUGGGGCAACAGAGGAUUGAGCAUCA

Some of the results follow.

The assay has as its target MSI1 full-length (mouse, UniProt Q61474 1-362). Description: nsRBNS (natural sequence RNA bind-n-seq); RBNS binding buffer (assumed for nsRBNS): 25 mM Tris pH 7.5, 150 mM KCl, 3 mM MgCl2, 0.01% Triton X-100, 500 ug/ml BSA, 20 U/ml SUPERase-In, 4 C; UNK is unkempt and MSI1 is Musashi-1; names of the RNAs are library labels; protein concentration not given here; high values mean tight binding.
Sequence of UniProt Q61474 (Q61474 whole entry): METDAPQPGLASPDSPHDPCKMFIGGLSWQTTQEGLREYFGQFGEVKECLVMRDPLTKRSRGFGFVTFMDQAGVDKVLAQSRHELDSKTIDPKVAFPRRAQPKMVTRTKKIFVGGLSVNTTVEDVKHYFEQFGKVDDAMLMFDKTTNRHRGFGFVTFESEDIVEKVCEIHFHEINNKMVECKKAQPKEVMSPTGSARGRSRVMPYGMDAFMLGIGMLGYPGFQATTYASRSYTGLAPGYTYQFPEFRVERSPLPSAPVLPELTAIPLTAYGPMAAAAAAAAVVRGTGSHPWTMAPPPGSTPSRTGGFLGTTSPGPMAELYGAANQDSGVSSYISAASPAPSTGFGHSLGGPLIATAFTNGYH
B1 gave a binding signal of 0.346 enrichment R.
Next, B2: 1.34 enrichment R; B3: 0.467 enrichment R.
The value for B4 was 0.615 enrichment R; that for B5 was 0.511 enrichment R; that for B6 was 32 enrichment R.
The value for B7 was 7.73 enrichment R; that for B8 was 2.86 enrichment R.
B9: the binding signal stood at 0.586 enrichment R.
Next, B10: 3.44 enrichment R.
Take B11: the binding signal worked out at 1.15 enrichment R.
Take B12: the binding signal was determined as 0.833 enrichment R.
Next, B13: 0.41 enrichment R.
The value for B14 was 0.681 enrichment R.
